The shares of active, inactive and inconclusive entries below differ from those in the screen. For some assays here: Potencies of inconclusive entries are doubtful fits and often do not repeat. The source made the active and inactive calls. Unless noted, calls follow the shape of the dose curve; as a rule, active = well fitted curve in the direction sought with a large enough effect in the repeat runs; inconclusive = weak or mixed curves; inactive = no such curve, though single readings can be large; an effect the other way counts as inactive or inconclusive.
Key:
[1] = qHTS assay for identifying genotoxic compounds that show differential cytotoxicity against isogenic chicken DT40 cell lines with known DNA damage response pathways - Rev3 mutant cell line (AID 743014); conditions: chicken DT40 Rev3-/- viability, CellTiter-Glo, 40 h; activity, negative = cytotoxicity: at 68.4 µM (top of the series); also: nearly all actives have a fitted effect of over 55% in size; also: potency is read from the fitted curve at half-maximal effect; as to activity, negative = cytotoxicity: % is scaled to controls: 0 for no effect and ±100 for the full control effect
[2] = qHTS assay for identifying genotoxic compounds that show differential cytotoxicity against isogenic chicken DT40 cell lines with known DNA damage response pathways - Rad54/Ku70 mutant cell line (AID 743015); conditions: DT40 Rad54/Ku70 mutant viability, CellTiter-Glo, 40 h; activity change, negative = cytotoxicity: at 66.8 µM (top of the series); also: nearly all actives have a fitted effect of over 60% in size; also: potency is read from the fitted curve at half-maximal effect; as to activity change, negative = cytotoxicity: % is scaled to controls: 0 for no effect and ±100 for the full control effect
[3] = qHTS assay to identify small molecule antagonists of the thyroid receptor (TR) signaling pathway - cell viability counter screen (AID 743064); conditions: GH3.TRE-Luc viability, CellTiter-Fluor, 24 h; activity change, negative = cytotoxic: at 70.3 µM (top of the series) unless noted; also: nearly all actives have a fitted effect of over 50% in size; also: potency is read from the fitted curve at half-maximal effect
In short: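 In-well cytotoxicity read by CellTiter-Fluor (30 min, 37 C) following 23.5 h exposure of GH3 cells bearing a TRE-luciferase sensor. Compounds were added alongside 1 nM (final) T3 to drive TR transactivation.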

[4] = test system: thyroid hormone receptor (rat, GH3 cells); experiment: qHTS assay to identify small molecule agonists of the thyroid receptor (TR) signaling pathway (AID 743066; calls by dose curve; also: % is scaled to controls: 0 for no effect and ±100 for the full control effect); conditions: GH3.TRE-Luc cells, TR agonist luciferase, 24 h; activation: at 83.9 µM (top of the series) unless noted
[5] = biological target: Estrogen receptor (Homo sapiens) (UniProt P03372); experiment: qHTS assay to identify small molecule antagonists of the estrogen receptor alpha (ER-alpha) signaling pathway (AID 743069; active = well fitted curve in the direction sought with a large enough effect in the signal ratio in the repeat runs, not every such curve was filed as active; inconclusive = weak or mixed curves, or effect the other way; inactive = no such curve, though single readings can be large or run the other way; the % refers to the signal ratio; also: potency is read from the fitted curve at half-maximal effect; as to activity, negative = inhibition: % is scaled to controls: 0 for no effect and ±100 for the full control effect); conditions: HEK293 ER-alpha-UAS-bla, beta-lactamase ratio, antagonist mode; activity, negative = inhibition: at 69.4 µM (top of the series) unless noted
In short: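 A 17beta-estradiol challenge was applied right after compound transfer to ER-alpha-UAS-bla HEK293 cells previously kept in charcoal-stripped serum. Plates stood 18 hr at 37C and 5% CO2; fluorescence was read following 2 hr FRET substrate loading at room temperature.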

[6] = qHTS assay to identify small molecule antagonists of the estrogen receptor alpha (ER-alpha) signaling pathway - cell viability counter screen (AID 743074; calls by dose curve;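 also: HEK293 cells carrying ER-alpha-UAS-bla reporter stimulated with 17beta-estradiol; nearly all actives have a fitted effect of over 45% in size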; also: potency is read from the fitted curve at half-maximal effect)
[7] = qHTS assay to identify small molecule antagonists of the androgen receptor (AR) signaling pathway using the MDA cell line - cell viability counter screen (AID 743041; also: potency is read from the fitted curve at half-maximal effect; nearly all actives have a fitted effect of over 45% in size); conditions: MDA-kb2 viability, CellTiter-Fluor, 16 h, cells co-treated with R1881 androgen agonist; viability change, negative = cytotoxic: at 70.3 µM (top of the series) unless noted
In short: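 In this qHTS counter assay, fluorescence intensity after CellTiter-Fluor addition indicated viability of MDA-kb2 AR-luc cells given compounds and R1881 for 16 h at 37C.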

[8] = biological target: Estrogen receptor (Homo sapiens) (UniProt P03372); experiment: qHTS assay to identify small molecule agonists of the estrogen receptor alpha (ER-alpha) signaling pathway using the BG1 cell line (AID 743079); conditions: BG1Luc4E2 cells, ERE-luciferase agonist, 22 h; activation: at 70.3 µM (top of the series) unless noted; also: nearly all actives have a fitted effect of over 20% in size; also: potency is read from the fitted curve at half-maximal effect
Aromatase (Homo sapiens) = Aromatase (Homo sapiens) (UniProt P11511); experiment: qHTS assay to identify aromatase inhibitors (AID 743083); conditions: MCF-7 aro ERE, testosterone-driven ERE luciferase, 24 h; activity, negative = inhibition: at 70.3 µM (top of the series); also: nearly all actives have a fitted effect of over 55% in size; also: potency is read from the fitted curve at half-maximal effect
[9] = qHTS assay to identify small molecule antagonists of the androgen receptor (AR) signaling pathway - cell viability counter screen (AID 743033; also: nearly all actives have a fitted effect of over 45% in size; also: potency is read from the fitted curve at half-maximal effect); conditions: AR-bla HEK293 viability, CellTiter-Glo luminescence, 16 h; activity change, negative = cytotoxicity: at 58.5 µM (top of the series) unless noted
[10] = qHTS assay to identify small molecule antagonists of the estrogen receptor alpha (ER-alpha) signaling pathway using the BG1 cell line (AID 743080; calls by dose curve;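 also: BG1 cells stimulated with 17beta-estradiol alongside compound; nearly all actives have a fitted effect of over 25% in size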; also: potency is read from the fitted curve at half-maximal effect); conditions: BG1Luc4E2 ERE-luciferase antagonist mode, luminescence; activity change, negative = inhibition: at 70.3 µM (top of the series) unless noted
In short: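 Luciferase inhibition measured with ONE-Glo after 30 min at RT in BG1Luc4E2 cells given test compounds and 17beta-estradiol for 21.5 h at 37 C; CellTiter-Fluor viability read in the same wells beforehand.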

[11] = biological target: Androgen receptor (Homo sapiens) (UniProt P10275); experiment: qHTS assay to identify small molecule antagonists of the androgen receptor (AR) signaling pathway (AID 743035; active = well fitted inhibition curve with a large enough effect in the signal ratio in the repeat runs, not every such curve was filed as active; inconclusive = weak or mixed curves, or effect the other way; inactive = no such curve, though single readings can be large or run the other way; the % refers to the signal ratio; also: potency is read from the fitted curve at half-maximal effect); conditions: HEK293 AR-UAS-bla, R1881-stimulated, beta-lactamase FRET, 16 h; activity change, negative = inhibition: at 58.5 µM (top of the series) unless noted
In short: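 AR-bla HEK293 reporter cells; 4 h settle at 37C/5% CO2; compound + R1881 agonist, 16 h at 37C; LiveBLAzer B/G FRET substrate 2 h RT; fluorescence intensity read. qHTS format.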

[12] = qHTS assay to identify small molecule antagonists of the thyroid receptor (TR) signaling pathway (AID 743065); also: nearly all actives have a fitted effect of over 55% in size; also: potency is read from the fitted curve at half-maximal effect
In short: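 GH3.TRE-Luc rat pituitary cells carrying two TR response elements driving luciferase were plated for 4 h, given compound plus 1 nM T3 (final), and incubated 23.5 h at 37 C. ONE-Glo luminescence measured reporter inhibition; CellTiter-Fluor fluorescence tracked cytotoxicity.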

[13] = biological target: Androgen receptor (Homo sapiens) (UniProt P10275); experiment: qHTS assay to identify small molecule agonists of the androgen receptor (AR) signaling pathway (AID 743036; active = well fitted activation curve with a large enough effect in the signal ratio in the repeat runs, with a control signal flat, not every such curve was filed as active; inconclusive = weak or mixed curves, or effect the other way; inactive = no such curve, though single readings can be large or run the other way; the % refers to the signal ratio; also: potency is read from the fitted curve at half-maximal effect); conditions: HEK293 AR-UAS-bla GripTite, beta-lactamase FRET ratio, 16 h; activation: at 62.4 µM (top of the series) unless noted
In short: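 Activation was read as beta-lactamase FRET signal from LiveBLAzer B/G substrate, added for 2 h at room temperature. Before that, GeneBLAzer AR-UAS-bla GripTite (HEK293) cells had 16 h compound exposure at 37C.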

[14] = qHTS assay to identify small molecule antagonists of the estrogen receptor alpha (ER-alpha) signaling pathway using the BG1 cell line - cell viability counter screen (AID 743081); conditions: BG1Luc4E2 viability, CellTiter-Fluor, 22 h; activity change, negative = cytotoxicity: at 70.3 µM (top of the series) unless noted;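 also: compound given together with 17beta-estradiol as the ER stimulus; % is scaled to controls: 0 for no effect and ±100 for the full control effect; nearly all actives have a fitted effect of over 45% in size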
Tags tell the direction and shape of the fitted curve or compound fluorescence and quenching.

Sequence of UniProt P11511 (P11511 whole entry, looked up): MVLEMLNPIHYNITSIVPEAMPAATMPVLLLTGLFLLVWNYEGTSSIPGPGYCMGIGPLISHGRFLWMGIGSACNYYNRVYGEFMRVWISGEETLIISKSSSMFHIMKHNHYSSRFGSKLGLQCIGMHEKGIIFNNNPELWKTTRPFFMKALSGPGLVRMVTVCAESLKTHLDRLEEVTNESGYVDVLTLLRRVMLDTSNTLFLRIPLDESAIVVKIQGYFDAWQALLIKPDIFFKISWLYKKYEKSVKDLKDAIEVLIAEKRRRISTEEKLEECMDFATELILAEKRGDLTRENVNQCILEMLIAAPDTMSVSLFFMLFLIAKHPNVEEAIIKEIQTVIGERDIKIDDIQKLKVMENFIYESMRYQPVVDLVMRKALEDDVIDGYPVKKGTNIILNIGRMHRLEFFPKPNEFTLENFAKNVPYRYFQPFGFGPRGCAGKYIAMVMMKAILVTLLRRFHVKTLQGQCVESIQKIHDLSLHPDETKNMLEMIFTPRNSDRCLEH
Sequence of UniProt P03372 (P03372 whole entry, looked up): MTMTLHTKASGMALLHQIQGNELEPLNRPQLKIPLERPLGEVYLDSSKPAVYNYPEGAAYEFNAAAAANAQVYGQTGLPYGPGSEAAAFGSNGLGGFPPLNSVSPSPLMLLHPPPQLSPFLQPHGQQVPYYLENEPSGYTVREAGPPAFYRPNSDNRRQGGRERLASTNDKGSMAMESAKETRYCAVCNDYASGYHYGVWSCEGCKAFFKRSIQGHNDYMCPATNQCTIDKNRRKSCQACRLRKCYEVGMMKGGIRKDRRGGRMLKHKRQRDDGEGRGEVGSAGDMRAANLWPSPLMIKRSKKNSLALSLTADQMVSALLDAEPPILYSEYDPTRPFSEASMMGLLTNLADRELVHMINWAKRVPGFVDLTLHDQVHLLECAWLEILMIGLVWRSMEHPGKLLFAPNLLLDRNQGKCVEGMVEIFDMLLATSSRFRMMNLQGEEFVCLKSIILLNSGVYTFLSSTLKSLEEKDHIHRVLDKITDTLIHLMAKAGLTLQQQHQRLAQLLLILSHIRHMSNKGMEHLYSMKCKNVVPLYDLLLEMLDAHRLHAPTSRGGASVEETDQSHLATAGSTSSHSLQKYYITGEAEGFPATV
Sequence of UniProt P10275 (P10275 whole entry, looked up): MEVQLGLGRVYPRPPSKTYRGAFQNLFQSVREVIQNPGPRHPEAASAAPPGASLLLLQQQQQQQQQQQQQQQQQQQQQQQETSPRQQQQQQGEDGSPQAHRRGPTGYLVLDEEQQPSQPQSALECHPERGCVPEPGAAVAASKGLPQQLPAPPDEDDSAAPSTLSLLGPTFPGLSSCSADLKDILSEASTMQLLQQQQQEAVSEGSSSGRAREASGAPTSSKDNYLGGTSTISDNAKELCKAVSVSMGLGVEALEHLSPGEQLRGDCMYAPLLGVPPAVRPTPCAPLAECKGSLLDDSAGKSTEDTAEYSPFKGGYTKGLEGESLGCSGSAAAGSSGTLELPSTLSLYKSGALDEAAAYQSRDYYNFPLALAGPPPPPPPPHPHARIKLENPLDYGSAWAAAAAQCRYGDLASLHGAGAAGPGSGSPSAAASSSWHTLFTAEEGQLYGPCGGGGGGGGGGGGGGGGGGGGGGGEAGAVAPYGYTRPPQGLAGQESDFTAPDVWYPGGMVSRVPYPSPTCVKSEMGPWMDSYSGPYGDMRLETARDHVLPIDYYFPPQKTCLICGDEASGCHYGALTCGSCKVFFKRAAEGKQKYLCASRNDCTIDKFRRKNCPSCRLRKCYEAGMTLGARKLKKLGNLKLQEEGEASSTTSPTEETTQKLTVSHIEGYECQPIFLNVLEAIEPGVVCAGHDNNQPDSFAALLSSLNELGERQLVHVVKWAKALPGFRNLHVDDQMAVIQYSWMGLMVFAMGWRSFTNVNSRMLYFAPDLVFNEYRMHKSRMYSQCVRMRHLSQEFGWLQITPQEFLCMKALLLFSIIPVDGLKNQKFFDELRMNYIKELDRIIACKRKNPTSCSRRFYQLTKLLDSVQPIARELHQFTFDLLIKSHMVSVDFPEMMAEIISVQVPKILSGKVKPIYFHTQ

CC(C)(C)CCCCCCOC(=O)c1ccccc1C(=O)OCCCCCCC(C)(C)C
Potency [1]: inactive
Potency [2]: inactive
Potency [3]: inconclusive: 61.2 µM [rising, partial curve, poor fit]
activation [4]: inconclusive: 0% [phenotype inactive]
Potency [5]: inactive
Potency [6]: inconclusive: 21.9 µM [rising, single point]

CCCCCc1ccc(N)cc1
Potency [1]: inconclusive: 13.7 µM [cytotoxic, partial curve, poor fit]
Potency [2]: inconclusive: 61.1 µM [cytotoxic]
Potency [7]: inconclusive: 30.6 µM [rising, full curve, poor fit]
Potency [3]: inactive
Potency [5]: inconclusive: 17.4 µM [rising, partial curve, poor fit]
Potency [6]: inconclusive: 38.9 µM [rising, partial curve, poor fit]
Potency [8]: inactive
Potency (Aromatase (Homo sapiens)): inconclusive: 43.3 µM [inhibitor, partial curve, poor fit]

CCCCN1C(=O)[C@@H]([C@H](O)C2CCCCC2)NC(=O)C12CCN(Cc1ccc(Oc3ccc(C(=O)O)cc3)cc1)CC2
Potency [1]: inconclusive: 68.6 µM [cytotoxic, single point]
Potency [2]: active: 15.4 µM
Potency [9]: inconclusive: 11 µM [cytotoxic, partial curve, poor fit]
Potency [3]: inconclusive: 68.6 µM [cytotoxic, single point]
activation [4]: inconclusive: -6.85% [phenotype inactive]
Potency [8]: inconclusive: 77 µM [inhibitor, single point]
Potency [10]: inconclusive: 77 µM [falling, single point]

CC(C)CCCCCCc1ccc(OCCOCCO)cc1
Potency [1]: inconclusive: 122 µM [cytotoxic, single point]
Potency [2]: inconclusive: 97.2 µM [cytotoxic, single point]
Potency [11]: inactive
Potency [3]: inconclusive: 48.7 µM [rising, single point]
Potency [4]: inactive
Potency [10]: inactive
Potency (Aromatase (Homo sapiens)): inconclusive: 9.72 µM [inhibitor, partial curve, poor fit]

C[C@H](CCC(=O)O)[C@H]1CC[C@H]2[C@@H]3CC[C@@H]4C[C@H](O)CC[C@]4(C)[C@H]3C[C@H](O)[C@]12C
Potency [1]: inconclusive: 77.2 µM [cytotoxic, partial curve, poor fit]
Potency [2]: inconclusive: 68.8 µM [cytotoxic, single point]
Potency [9]: inconclusive: 55.1 µM [cytotoxic, partial curve, poor fit]
Potency [3]: inconclusive: 68.8 µM [cytotoxic, single point]
Potency [12]: inconclusive: 33.5 µM [inhibitor, partial curve, poor fit]
Potency [5]: inconclusive: 34.8 µM [fluorescent, partial curve]
Potency [6]: inconclusive: 34.8 µM [cytotoxic, partial curve]
Potency [8]: inconclusive: 77.2 µM [inhibitor, partial curve, poor fit]

CCCCCCCCCCC=O
Potency [1]: inactive
Potency [2]: inactive
activation [13]: inconclusive: 12% [at 79.1 µM]
Potency [3]: inactive
Potency [12]: inactive
Potency (Aromatase (Homo sapiens)): inactive

CCC(C)CO (stereo not given)
Potency [1]: inactive
Potency [2]: inconclusive: 27.3 µM [cytotoxic, partial curve, poor fit]
Potency [9]: inactive
Potency [6]: inactive
Potency [8]: inactive

O=[N+]([O-])c1cccc(S(=O)(=O)NCCNS(=O)(=O)c2cccc([N+](=O)[O-])c2)c1
Potency [1]: inconclusive: 9.44 µM [rising, full curve, poor fit]
Potency [2]: inactive
Potency [11]: inconclusive: 23.9 µM [falling, single point]
Potency [13]: inconclusive: 10.7 µM [activator]

CCCCC(=O)O[C@]1(C(=O)CO)[C@H](C)C[C@H]2[C@@H]3CCC4=CC(=O)C=C[C@]4(C)[C@@]3(F)[C@@H](O)C[C@@]21C
Potency [1]: inconclusive: 29.8 µM [cytotoxic, single point]
Potency [2]: inconclusive: 33.5 µM [cytotoxic, single point]
Potency [9]: inconclusive: 9.52 µM [cytotoxic, full curve, poor fit]
Potency [12]: inconclusive: 33.5 µM [inhibitor, partial curve, poor fit]
Potency [5]: inconclusive: 0.0011 µM [activator, full curve]
Potency [8]: inactive
Potency [10]: inconclusive: 0.0038 µM [rising, full curve, poor fit]

CCC(C)C1N=C(C)C(C)S1 (stereo not given)
Potency [1]: inactive
Potency [2]: inconclusive: 27.3 µM [cytotoxic, single point]

O=Cc1ccc(Cl)c(Cl)c1
Potency [1]: inconclusive: 70.4 µM [cytotoxic]
Potency [2]: inactive
Potency [9]: inactive
Potency [3]: inconclusive: 70.4 µM [rising, single point]
Potency [14]: inactive

Reference: PubChem BioAssay (Tox21)
